Laboratory results as given in the supplement of paper PMC8728848.
The other results are listed elsewhere or left out.

Key:
Experiment in all cases: glycan array binding signal (z-score within array); higher = stronger binding
Settings in all cases: glycan notation: IUPAC condensed, linker removed; mutation: E41A
[1] = target: GlcNAc(b1-4)GlcNAc(b1-4)GlcNAc(b1-4)GlcNAc(b1-4)GlcNAc
Method in brief: (§1)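 Glycan array binding is given as a within-array Z-score, which can be read as non-binding when negative. The arrays, 3228 of them, came from the Consortium for Functional Glycomics database and were retained only where the protein sequence was available. Z-scores were averaged across arrays of the same protein sequence at different concentrations or buffers and across linkers.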

[2] = target: GlcNAc(b1-4)GlcNAc(b1-4)GlcNAc(b1-4)GlcNAc(b1-4)GlcNAc(b1-4)GlcNAc
Method in brief: as §1

[3] = target: GlcNAc(b1-4)[GlcNAc(b1-6)]GalNAc
Method in brief: as §1

[4] = target: GlcNAc(b1-6)Gal(b1-4)GlcNAc
Method in brief: as §1

GlcNAc(b1-6)GalNAc = target: GlcNAc(b1-6)GalNAc
Method in brief: as §1

[5] = target: GlcNAc6S(b1-3)Gal(b1-4)GlcNAc
Method in brief: as §1

Kdn(a2-3)Gal(b1-3)GalNAc = target: Kdn(a2-3)Gal(b1-3)GalNAc
Method in brief: as §1

Kdn(a2-3)Gal(b1-3)GlcNAc = target: Kdn(a2-3)Gal(b1-3)GlcNAc
Method in brief: as §1

Kdn(a2-3)Gal(b1-4)Glc = target: Kdn(a2-3)Gal(b1-4)Glc
Method in brief: as §1

Kdn(a2-3)Gal(b1-4)GlcNAc = target: Kdn(a2-3)Gal(b1-4)GlcNAc
Method in brief: as §1

[6] = target: Kdn(a2-3)Gal(b1-4)[Fuc(a1-3)]GlcNAc
Method in brief: as §1

Kdn(a2-6)Gal(b1-4)GlcNAc = target: Kdn(a2-6)Gal(b1-4)GlcNAc
Method in brief: as §1

[7] = target: Man(a1-2)Man(a1-2)Man(a1-3)Man
Method in brief: as §1

[8] = target: Man(a1-2)Man(a1-2)Man(a1-6)[Man(a1-3)]Man
Method in brief: as §1

Man(a1-2)Man(a1-3)Man = target: Man(a1-2)Man(a1-3)Man
Method in brief: as §1

[9] = target: Man(a1-2)Man(a1-3)[Man(a1-2)Man(a1-6)]Man
Method in brief: as §1

[10] = target: Man(a1-2)Man(a1-3)[Man(a1-2)Man(a1-6)]Man(a1-6)[Man(a1-2)Man(a1-2)Man(a1-3)]Man
Method in brief: as §1

[11] = target: Man(a1-2)Man(a1-3)[Man(a1-2)Man(a1-6)]Man(a1-6)[Man(a1-2)Man(a1-2)Man(a1-3)]Man(b1-4)GlcNAc(b1-4)GlcNAc
Method in brief: as §1

[12] = target: Man(a1-2)Man(a1-3)[Man(a1-6)]Man(a1-6)[Man(a1-2)Man(a1-3)]Man(b1-4)GlcNAc(b1-4)GlcNAc
Method in brief: as §1

[13] = target: Man(a1-2)Man(a1-6)[Man(a1-3)]Man(a1-6)[Man(a1-2)Man(a1-2)Man(a1-3)]Man
Method in brief: as §1

[14] = target: Man(a1-2)Man(a1-6)[Man(a1-3)]Man(a1-6)[Man(a1-2)Man(a1-2)Man(a1-3)]Man(b1-4)GlcNAc(b1-4)GlcNAc
Method in brief: as §1

Man(a1-3)[Man(a1-6)]Man = target: Man(a1-3)[Man(a1-6)]Man
Method in brief: as §1

[15] = target: Man(a1-3)[Man(a1-6)]Man(a1-6)[Man(a1-2)Man(a1-3)]Man(b1-4)GlcNAc(b1-4)GlcNAc
Method in brief: as §1

[16] = target: Man(a1-3)[Man(a1-6)]Man(a1-6)[Man(a1-3)]Man
Method in brief: as §1

[17] = target: Man(a1-3)[Man(a1-6)]Man(a1-6)[Man(a1-3)]Man(b1-4)GlcNAc(b1-4)GlcNAc
Method in brief: as §1

[18] = target: Man(a1-3)[Man(a1-6)]Man(b1-4)GlcNAc(b1-4)GlcNAc
Method in brief: as §1

[19] = target: Man(a1-3)[Man(a1-6)]Man(b1-4)GlcNAc(b1-4)[Fuc(a1-6)]GlcNAc
Method in brief: as §1

Man(a1-6)Man = target: Man(a1-6)Man
Method in brief: as §1

Man(b1-4)GlcNAc = target: Man(b1-4)GlcNAc
Method in brief: as §1

MurNAc(b1-4)GlcNAc = target: MurNAc(b1-4)GlcNAc
Method in brief: as §1

Neu5Ac(a2-3)Gal = target: Neu5Ac(a2-3)Gal
Method in brief: as §1

[20] = target: Neu5Ac(a2-3)Gal(b1-3)GalNAc
Method in brief: as §1

[21] = target: Neu5Ac(a2-3)Gal(b1-3)GalNAc(b1-3)Gal(a1-4)Gal(b1-4)Glc
Method in brief: as §1

[22] = target: Neu5Ac(a2-3)Gal(b1-3)GalNAc(b1-4)Gal(b1-4)Glc
Method in brief: as §1

[23] = target: Neu5Ac(a2-3)Gal(b1-3)GalNAc(b1-4)[Neu5Ac(a2-3)]Gal(b1-4)Glc
Method in brief: as §1

[24] = target: Neu5Ac(a2-3)Gal(b1-3)GalNAc(b1-4)[Neu5Ac(a2-8)Neu5Ac(a2-3)]Gal(b1-4)Glc
Method in brief: as §1

[25] = target: Neu5Ac(a2-3)Gal(b1-3)GalNAc6S
Method in brief: as §1

[26] = target: Neu5Ac(a2-3)Gal(b1-3)GlcNAc
Method in brief: as §1

[27] = target: Neu5Ac(a2-3)Gal(b1-3)GlcNAc(b1-2)Man
Method in brief: as §1

[28] = target: Neu5Ac(a2-3)Gal(b1-3)GlcNAc(b1-2)Man(a1-3)[GlcNAc(b1-4)][Neu5Ac(a2-3)Gal(b1-3)GlcNAc(b1-2)Man(a1-6)]Man(b1-4)GlcNAc(b1-4)GlcNAc
Method in brief: as §1

[29] = target: Neu5Ac(a2-3)Gal(b1-3)GlcNAc(b1-2)Man(a1-3)[Neu5Ac(a2-3)Gal(b1-3)GlcNAc(b1-2)Man(a1-6)]Man(b1-4)GlcNAc(b1-4)GlcNAc
Method in brief: as §1

[30] = target: Neu5Ac(a2-3)Gal(b1-3)GlcNAc(b1-2)[Neu5Ac(a2-3)Gal(b1-3)GlcNAc(b1-4)]Man(a1-6)[Neu5Ac(a2-3)Gal(b1-3)GlcNAc(b1-2)Man(a1-3)]Man(b1-4)GlcNAc(b1-4)GlcNAc
Method in brief: as §1

[31] = target: Neu5Ac(a2-3)Gal(b1-3)GlcNAc(b1-3)Gal(b1-3)GlcNAc
Method in brief: as §1

[32] = target: Neu5Ac(a2-3)Gal(b1-3)GlcNAc(b1-3)Gal(b1-4)GlcNAc
Method in brief: as §1

[33] = target: Neu5Ac(a2-3)Gal(b1-3)GlcNAc(b1-3)GalNAc
Method in brief: as §1

B1: CVN-E41G (protein)
chain: MHHHHHHENLYFQSGNFSQACYNSAIQGSVLTSTCIRTNGGYNTSSIDLNSVIANVDGSLKWQGSNFIETCRNTQLAGSSELAAECKTRAQQFVSTKINLDDHIAAIDGTLKYE
- glycan array binding signal (z-score) [1]: -0.15
- glycan array binding signal (z-score) [2]: -0.226
- glycan array binding signal (z-score) [3]: -0.253
- glycan array binding signal (z-score) [4]: -0.048
- glycan array binding signal (z-score) (GlcNAc(b1-6)GalNAc): -0.213
- glycan array binding signal (z-score) [5]: -0.122
- glycan array binding signal (z-score) (Kdn(a2-3)Gal(b1-3)GalNAc): -0.181
- glycan array binding signal (z-score) (Kdn(a2-3)Gal(b1-3)GlcNAc): -0.212
- glycan array binding signal (z-score) (Kdn(a2-3)Gal(b1-4)Glc): -0.177
- glycan array binding signal (z-score) (Kdn(a2-3)Gal(b1-4)GlcNAc): -0.198
- glycan array binding signal (z-score) [6]: -0.225
- glycan array binding signal (z-score) (Kdn(a2-6)Gal(b1-4)GlcNAc): -0.193
- glycan array binding signal (z-score) [7]: 8.7
- glycan array binding signal (z-score) [8]: 8.39
- glycan array binding signal (z-score) (Man(a1-2)Man(a1-3)Man): 7.22
- glycan array binding signal (z-score) [9]: 8.35
- glycan array binding signal (z-score) [10]: 10.5
- glycan array binding signal (z-score) [11]: 0.418
- glycan array binding signal (z-score) [12]: 5.81
- glycan array binding signal (z-score) [13]: 9.42
- glycan array binding signal (z-score) [14]: 6.36
- glycan array binding signal (z-score) (Man(a1-3)[Man(a1-6)]Man): -0.056
- glycan array binding signal (z-score) [15]: 3.98
- glycan array binding signal (z-score) [16]: -0.066
- glycan array binding signal (z-score) [17]: 1.19
- glycan array binding signal (z-score) [18]: -0.182
- glycan array binding signal (z-score) [19]: 0.266
- glycan array binding signal (z-score) (Man(a1-6)Man): -0.081
- glycan array binding signal (z-score) (Man(b1-4)GlcNAc): -0.227
- glycan array binding signal (z-score) (MurNAc(b1-4)GlcNAc): -0.239
- glycan array binding signal (z-score) (Neu5Ac(a2-3)Gal): -0.233
- glycan array binding signal (z-score) [20]: -0.172
- glycan array binding signal (z-score) [21]: -0.197
- glycan array binding signal (z-score) [22]: -0.089
- glycan array binding signal (z-score) [23]: 0.09
- glycan array binding signal (z-score) [24]: -0.2
- glycan array binding signal (z-score) [25]: -0.237
- glycan array binding signal (z-score) [26]: -0.202
- glycan array binding signal (z-score) [27]: -0.212
- glycan array binding signal (z-score) [28]: 0.053
- glycan array binding signal (z-score) [29]: -0.062
- glycan array binding signal (z-score) [30]: 0.509
- glycan array binding signal (z-score) [31]: -0.222
- glycan array binding signal (z-score) [32]: -0.181
- glycan array binding signal (z-score) [33]: -0.212
